Results reported in PubChem BioAssay AID1508624 (National Center for Advancing Translational Sciences (NCATS), 2021).
Out of some 48,000 compounds screened, about 120 (0.25%) were called active. Another 4% or so got no clear call; they are omitted. The call rests on the fitted dose curve; in most records, active means well fitted activation curve with a large enough effect; inconclusive means small, poorly fitted or top-dose-only effect, or another doubt; inactive means no such curve, though single readings can be large or run the other way. Some of the results follow.

Assay: Primary qHTS for Identification of Small Molecule Activators of Huntingtin-Antisense Promoter Activity; further: nearly all actives have a fitted effect of over 55% in size
Conditions: HEK293 HTT-AS promoter firefly luciferase reporter (activity 0% = vehicle and -100% = no light), 24 h; series mostly up to 57.5 µM; activity change, positive = activation: at the top concentration
Method in brief: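 Luminescence was read after Dual-Glo reagent and a 10 min room-temperature incubation. Values were normalized to vehicle (0% activity) and zero RLU (-100% activity). Reporter HEK293 cells had been exposed to compounds (up to 57.5 uM final) for 24 h.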
Potency means the concentration at half of the fitted maximal effect.

Row | Compound | activity change, positive = activation | Potency
1 | Cc1c(Cl)cccc1NC(=O)c1oc2ccc(S(=O)(=O)N3CCC4(CC3)OCCO4)cc2c1C | inactive: -44% | 
2 | COc1ccc(NC(=O)C2Cc3ccccc3CN2S(=O)(=O)c2ccccc2)cc1OC (stereo not given) | inactive: -13.4% | 
3 | CCc1cccc(-n2c(=O)c3cccnc3n2CC(=O)Nc2ccc(OC)c(Cl)c2)c1 | inactive: -27.2% | 
4 | CCc1ccccc1NC(=O)CCCn1c(=O)c2cccn2c2ccccc21 | inactive: -12.4% | 
5 | COc1cccc(-n2c(SCC(N)=O)nc3c(oc4ccccc43)c2=O)c1 | inactive: -21.8% | 
6 | Cc1ccc(NC(=O)c2cnc3cc(C)ccn3c2=O)c(C)c1 |  | active: 3.55 µM
7 | CCCCSc1nc(-c2cccc(OC)c2)nc2c1Cc1c(CO)cnc(C)c1O2 | inactive: -1.36% | 
8 | COc1c2occc2c(OC)c2c(=O)cc(C)oc12 | inactive: -3.15% | 
9 | CC1(C)S[C@@H]2[C@H](NC(=O)Cc3ccccc3)C(=O)N2[C@H]1C(=O)O (tested in a mixture with another compound) | inactive: 1.1% | 
10 | CCN(CC)c1ccc(NC(=O)CCc2c(C)nc3ncnn3c2C)c(C)c1 | inactive: -22.3% | 
11 | COc1cc(C2C(C(=O)Nc3ccccc3C)=C(C)Nc3nc(SCc4cc(C)ccc4C)nn32)ccc1O (stereo not given) | inactive: -32.4% | 
12 | Cc1cccn2c(=O)c(C(=O)N3CCN(c4ccc(Cl)cc4)CC3)cnc12 | inactive: -23.8% | 
13 | O=S(=O)(NCCc1csc2nc(-c3ccccc3)nn12)c1ccc(Oc2ccccc2)cc1 | inactive: -54.7% | 
14 | Cc1ccc(Cl)cc1N1CCN(C(=O)c2noc3c2CCCC3)CC1 | inactive: -33% | 
15 | CCOC(=O)c1cc2c(=O)n3ccccc3nc2n(Cc2ccco2)c1=NC(=O)c1cccc(Br)c1 | inactive: 1.41% | 
16 | Cc1ccc(-n2nnnc2CNC(=O)C2CC(=O)N(c3ccccc3)C2)cc1C (stereo not given) | inactive: -8.42% | 
17 | COc1ccc(Cl)cc1NC(=O)Cn1nnc2sc(-c3ccccc3)cc2c1=O | inactive: -6.97% | 
18 | NC(=O)NS(=O)(=O)c1ccc(Cl)cc1 | inactive: 2.08% | 
19 | O=C1CN(C(=O)Cc2ccccc2)C(c2ccc(F)cc2)c2cc(Br)ccc2N1 (stereo not given) | inactive: -28.5% | 
20 | Cc1cc(S(=O)(=O)Nc2ccc3oc4c(c3c2)CCCC4)ccc1Cl | inactive: -26.4% | 

Row | Compound | activity change, positive = activation | Potency
21 | CCCc1nn2c(=O)cc(COC(=O)c3ccc(NC(=O)COc4ccccc4F)cc3)nc2s1 | inactive: -3.73% | 
22 | CCOc1ccc(CCNCc2c(C(=O)O)c(C)n(Cc3ccccc3F)c2C)cc1 | inactive: -15.6% | 
23 | Cc1ccc(S(=O)(=O)N2CCc3cc(C(=O)Nc4ccc(Cl)cc4C)ccc32)cc1 | inactive: 12% | 
24 | CCOc1ccc(NC(=O)[C@@H](c2ccccc2)N2Cc3ccccc3C2=O)cc1 | inactive: 0.903% | 
25 | CC(C)c1ccc(N2C(=O)N(Cc3cccc([N+](=O)[O-])c3)c3ccccc3S2(=O)=O)cc1 | inactive: -23.9% | 
26 | Cc1noc(-c2ccc(-c3noc(-c4ccc([N+](=O)[O-])c(C)c4)n3)cc2)n1 | inactive: 7.99% | 
27 | COc1ccc(NS(=O)(=O)c2ccc3c(c2)[C@H]2C=CC[C@H]2[C@@H](c2ccc(C(=O)O)cc2)N3)cc1 | inactive: -3.38% | 
28 | Cc1ccccc1Cn1c(C)c(CNCCCc2ccccc2)c(C(=O)O)c1C | inactive: -17% | 
29 | COc1ccc(C2C=C(c3ccc(Cl)cc3)Nc3nc(NC(=O)CCC(=O)O)nn32)cc1 (stereo not given) | inactive: -5.15% | 
30 | O=c1c2sc3ccccc3c2n(Cc2ccc(Cl)cc2)c(=O)n1Cc1ccco1 | inactive: -12.9% | 
31 | COc1ccc(-c2csc3nc(-c4ccc(C)cc4)oc(=O)c23)cc1OC | inactive: 0.831% | 
32 | Cc1ccc(NC(=O)CCc2nc3cccnc3n2-c2ccccc2)cc1Cl | inactive: -25% | 
33 | COc1ccc(CCN(C)CCCC(C#N)(c2cc(OC)c(OC)c(OC)c2)C(C)C)cc1OC (stereo not given) | inactive: -13.1% | 
34 | Cc1ccc(N(Cc2cccs2)C(=O)c2ccccc2[N+](=O)[O-])cc1 | inactive: -39.6% | 
35 | CCCOc1cccc(C(=O)N2CCCCC2CCN2CCCCC2)c1 (stereo not given) | inactive: -3.69% | 
36 | CCC(C)NC(=O)Cn1c(=O)c2cccn2c2ccc(F)cc21 (stereo not given) | inactive: -4.01% | 
37 | O=C(Nc1ccc(F)cc1Cl)c1cnc(N2CCOCC2)c2ccccc12 | inactive: -6.31% | 
38 | Fc1ccccc1N1CCN(c2ncnc3c2nc2n3CCCC2)CC1 | inactive: -13.1% | 
39 | COc1ccc(CCNC(=O)CCCCn2c(=O)c3ccccc3n(Cc3ccccc3)c2=O)cc1OC | inactive: -28.6% | 
40 | CN(C)c1ccc(NC(=O)Cn2cc(S(=O)(=O)Cc3ccccc3Cl)c3ccccc32)cc1 | inactive: -16.5% | 

Row | Compound | activity change, positive = activation | Potency
41 | CCOC(=O)c1ccc(NC(=O)CSc2ncc(S(=O)(=O)c3ccc(C)c(Cl)c3)c(=O)[nH]2)cc1 | inactive: -0.36% | 
42 | CCn1cc2nc(SCC(=O)Nc3ccc(OC)cc3OC)n(Cc3ccc(Cl)cc3)c(=O)c2n1 | inactive: -27% | 
43 | Nc1cc(C(Cl)=C(Cl)Cl)c(S(N)(=O)=O)cc1S(N)(=O)=O | inactive | 
44 | CCCCN(C)c1nnc(NC(=O)Nc2ccc(Br)c(C)c2)s1 | inactive: 5.3% | 
45 | CCc1ccc(CN(Cc2ccco2)C(=O)c2cc(-c3ccc(C)c(F)c3)on2)cc1 | inactive: -11.8% | 
46 | CCOc1ccc(NC(=O)Cn2cc(C(=O)c3ccc(C)cc3)c(=O)c3cc4c(cc32)OCO4)cc1 | inactive: -23.2% | 
47 | CCn1c2c(c(=O)n3ncc(C(=O)Nc4ccc(Cl)cc4C)c13)CN(Cc1ccc(OC)cc1)CC2 | inactive: -16.7% | 
48 | Brc1cccc(-c2nnn3c2nc(N2CCCCC2)c2ccccc23)c1 | inactive: 6.08% | 
49 | O=C(CNS(=O)(=O)c1cccs1)N1CCN(c2ccccc2F)CC1 | inactive: 21.7% | 
50 | Cc1ccc(F)cc1S(=O)(=O)N1CCC(c2nc3ccccc3s2)CC1 | inactive: -5.32% | 
51 | CCCn1c(=O)c2sccc2n2c(CCCC(=O)NC3CCCCC3)nnc12 | inactive: 4.76% | 
52 | COCCCNC(=O)c1ccc(-n2c(-c3ccccc3)cc3c2CCCCC3)cc1 | inactive: 19.2% | 
53 | CCOC(=O)c1cc(OC(=O)c2cc(OC)cc(OC)c2)n(-c2ccccc2)n1 | inactive: -3.89% | 
54 | Clc1ccc2nc(-c3cccs3)c(Nc3ccc4c(c3)OCCO4)n2c1 | inactive: 35.2% | 
55 | CCc1nonc1NC(=O)c1oc2ccc(Cl)cc2c1C | inactive: 29.5% | 
56 | CCOC(=O)c1c(NC(=O)CSc2cn(CCNC(=O)c3ccc(OCC)cc3)c3ccccc23)sc2c1CCC2 | inactive: -36.5% | 
57 | Cc1ccc(Cl)cc1NC(=O)Cn1c(SCC(=O)NCc2ccccc2)nc2ccccc21 | inactive: -7.72% | 
58 | CC1Cc2cc(S(=O)(=O)NCc3ccccc3)ccc2N1C(=O)C1CCC1 (stereo not given) | inactive: -30.2% | 
59 | CC1=C(C(=O)OC2CCCCCC2)C(c2ccc(Cl)cc2Cl)CC(=O)N1 (stereo not given) | inactive: -20% | 
60 | COc1cccc(CNC(=O)c2cc(=O)[nH]c3ccc(S(=O)(=O)N4CCCC4)cc23)c1 | inactive: -7.91% | 
